In the supplement of paper PMC4967469:
A lower IC50 marks a more sensitive line; a limit (>, <) means that the fit lies beyond the doses tested. AUC, from the same fit, is the share of area under the viability curve across the 256-fold dose range; values near 1 show little effect. Where the top dose is marked as inferred, it is not printed in the source and was worked back from the curve model. For some assays here: Drugs with an entry number were screened twice under separate entries, and the two screens often disagree.

Compound: COc1cc(-c2nn([C@H]3CC[C@H](N4CCN(C(C)=O)CC4)CC3)c3ncnc(N)c23)ccc1NC(=O)c1cc2ccccc2n1C [A-770041]
Assay: Viability of human cancer cell lines after 72 h of drug (GDSC screen)
Details: top dose 5.12 µM; top dose inferred
Experimental: (§1)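 Human cancer cell lines in 384-well plates, medium with 10% serum, drug for 72 h over a 256-fold dose range (nine 2-fold or five 4-fold steps up to the top dose). Adherent lines were fixed and stained with the nucleic acid dye Syto60, suspension lines read with resazurin; signal relative to control wells, capped at 0 and 100%. One two-parameter sigmoid per drug and line, fitted in a mixed model over all curves with the slope shared within a line.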

Cell Line | AUC | IC50
BL-41 (Burkitt lymphoma, suspension) | 0.645 | 0.728 µM
BT-474 (breast, adherent) | 0.933 | > 5.12 µM
Becker (glioma, adherent) | 0.783 | 2.45 µM
CAS-1 (glioma, adherent) | 0.929 | > 5.12 µM
CGTH-W-1 (thyroid, adherent) | 0.976 | > 5.12 µM
COLO-668 (small cell lung carcinoma, adherent) | 0.97 | > 5.12 µM
COLO-684 (endometrium, suspension) | 0.977 | > 5.12 µM
COLO-800 (melanoma, adherent) | 0.96 | > 5.12 µM
COR-L95 (small cell lung carcinoma, adherent) | 0.899 | > 5.12 µM
CW-2 (large intestine, adherent) | 0.989 | > 5.12 µM
D-247MG (glioma, adherent) | 0.862 | > 5.12 µM

Compound: NC(=O)c1ccc(N(C(N)=O)c2c(F)cccc2F)nc1-c1ccc(F)cc1F [VX-702]
Assay: as above
Details: top dose 2 µM; top dose inferred
Experimental: as §1

Cell Line | AUC | IC50
8-MG-BA (glioma, adherent) | 0.988 | > 2 µM
A101D (melanoma, adherent) | 0.834 | 1.75 µM
A253 (head and neck, adherent) | 0.988 | > 2 µM
A388 (skin, adherent) | 0.966 | > 2 µM
A498 (kidney, adherent) | 0.979 | > 2 µM
ALL-PO (lymphoblastic leukaemia, suspension) | 0.875 | > 2 µM
AMO-1 (haematopoietic neoplasm, suspension) | 0.952 | > 2 µM
ATN-1 (T-cell lymphoblastic leukaemia, suspension) | 0.94 | > 2 µM
BE-13 (lymphoblastic leukaemia, suspension) | 0.983 | > 2 µM
BL-41 (Burkitt lymphoma, suspension) | 0.994 | > 2 µM
BT-474 (breast, adherent) | 0.986 | > 2 µM
Becker (glioma, adherent) | 0.979 | > 2 µM
CAS-1 (glioma, adherent) | 0.981 | > 2 µM
CGTH-W-1 (thyroid, adherent) | 0.985 | > 2 µM
COLO-668 (small cell lung carcinoma, adherent) | 0.989 | > 2 µM
COLO-684 (endometrium, suspension) | 0.971 | > 2 µM
COLO-800 (melanoma, adherent) | 0.936 | > 2 µM
COR-L95 (small cell lung carcinoma, adherent) | 0.987 | > 2 µM
CW-2 (large intestine, adherent) | 0.989 | > 2 µM
D-247MG (glioma, adherent) | 0.98 | > 2 µM

Compound: O=C(c1cc(Cc2n[nH]c(=O)c3ccccc23)ccc1F)N1CCN(C(=O)C2CC2)CC1 [Olaparib]
Assay: as above
Details: top dose 5 µM; screen: GDSC drug entry 1017; top dose inferred
Experimental: as §1

Cell Line | AUC | IC50
8-MG-BA (glioma, adherent) | 0.902 | > 5 µM
A101D (melanoma, adherent) | 0.862 | > 5 µM
A253 (head and neck, adherent) | 0.989 | > 5 µM
A388 (skin, adherent) | 0.966 | > 5 µM
A498 (kidney, adherent) | 0.965 | > 5 µM
ALL-PO (lymphoblastic leukaemia, suspension) | 0.867 | 4.93 µM
AMO-1 (haematopoietic neoplasm, suspension) | 0.991 | > 5 µM
ATN-1 (T-cell lymphoblastic leukaemia, suspension) | 0.966 | > 5 µM
BE-13 (lymphoblastic leukaemia, suspension) | 0.946 | > 5 µM
BL-41 (Burkitt lymphoma, suspension) | 0.994 | > 5 µM
BT-474 (breast, adherent) | 0.984 | > 5 µM
Becker (glioma, adherent) | 0.978 | > 5 µM
CAS-1 (glioma, adherent) | 0.974 | > 5 µM
CGTH-W-1 (thyroid, adherent) | 0.964 | > 5 µM
COLO-668 (small cell lung carcinoma, adherent) | 0.988 | > 5 µM
COLO-684 (endometrium, suspension) | 0.957 | > 5 µM
COLO-800 (melanoma, adherent) | 0.552 | 0.431 µM
COR-L95 (small cell lung carcinoma, adherent) | 0.987 | > 5 µM
CW-2 (large intestine, adherent) | 0.988 | > 5 µM
D-247MG (glioma, adherent) | 0.899 | > 5 µM

Same assay, conditions: top dose 10 µM; screen: GDSC drug entry 1495

Cell Line | AUC | IC50
8-MG-BA (glioma, adherent) | 0.82 | 5.26 µM
A101D (melanoma, adherent) | 0.939 | > 10 µM
A253 (head and neck, adherent) | 0.929 | > 10 µM
A388 (skin, adherent) | 0.96 | > 10 µM
A498 (kidney, adherent) | 0.921 | > 10 µM
ALL-PO (lymphoblastic leukaemia, suspension) | 0.957 | > 10 µM
AMO-1 (haematopoietic neoplasm, suspension) | 0.99 | > 10 µM
BE-13 (lymphoblastic leukaemia, suspension) | 0.97 | > 10 µM
BL-41 (Burkitt lymphoma, suspension) | 0.994 | > 10 µM
BT-474 (breast, adherent) | 0.954 | > 10 µM
Becker (glioma, adherent) | 0.883 | > 10 µM
CAS-1 (glioma, adherent) | 0.965 | > 10 µM
CGTH-W-1 (thyroid, adherent) | 0.985 | > 10 µM
COLO-668 (small cell lung carcinoma, adherent) | 0.985 | > 10 µM
COLO-684 (endometrium, suspension) | 0.961 | > 10 µM
COLO-800 (melanoma, adherent) | 0.458 | 0.483 µM
COR-L95 (small cell lung carcinoma, adherent) | 0.984 | > 10 µM
CW-2 (large intestine, adherent) | 0.988 | > 10 µM
D-247MG (glioma, adherent) | 0.893 | > 10 µM

Compound: CCNc1cc(NC2CCC(O)CC2)nc(Nc2ccc3c(ccn3Cc3ccccc3)c2)n1 [CGP-082996 (CINK4)]
Assay: as above
Details: top dose 5.12 µM; top dose inferred
Experimental: as §1

Cell Line | AUC | IC50
8-MG-BA (glioma, adherent) | 0.942 | > 5.12 µM
A101D (melanoma, adherent) | 0.834 | 4.47 µM
A253 (head and neck, adherent) | 0.977 | > 5.12 µM
A388 (skin, adherent) | 0.918 | > 5.12 µM
A498 (kidney, adherent) | 0.898 | > 5.12 µM
ALL-PO (lymphoblastic leukaemia, suspension) | 0.769 | 2.05 µM
AMO-1 (haematopoietic neoplasm, suspension) | 0.963 | > 5.12 µM
ATN-1 (T-cell lymphoblastic leukaemia, suspension) | 0.819 | 2.67 µM
BE-13 (lymphoblastic leukaemia, suspension) | 0.91 | > 5.12 µM
BL-41 (Burkitt lymphoma, suspension) | 0.847 | 2.51 µM
BT-474 (breast, adherent) | 0.969 | > 5.12 µM
Becker (glioma, adherent) | 0.983 | > 5.12 µM
CAS-1 (glioma, adherent) | 0.976 | > 5.12 µM
CGTH-W-1 (thyroid, adherent) | 0.96 | > 5.12 µM
COLO-668 (small cell lung carcinoma, adherent) | 0.985 | > 5.12 µM
COLO-684 (endometrium, suspension) | 0.97 | > 5.12 µM
COLO-800 (melanoma, adherent) | 0.974 | > 5.12 µM
COR-L95 (small cell lung carcinoma, adherent) | 0.96 | > 5.12 µM
CW-2 (large intestine, adherent) | 0.988 | > 5.12 µM
D-247MG (glioma, adherent) | 0.933 | > 5.12 µM

Compound: Cc1ccc(-n2nc(C(C)(C)C)cc2NC(=O)Nc2ccc(OCCN3CCOCC3)c3ccccc23)cc1 [BIRB 0796]
Assay: as above
Details: top dose 10 µM; top dose inferred
Experimental: as §1

Cell Line | AUC | IC50
8-MG-BA (glioma, adherent) | 0.983 | > 10 µM
A101D (melanoma, adherent) | 0.976 | > 10 µM
A253 (head and neck, adherent) | 0.982 | > 10 µM
A388 (skin, adherent) | 0.88 | > 10 µM
A498 (kidney, adherent) | 0.979 | > 10 µM
ALL-PO (lymphoblastic leukaemia, suspension) | 0.974 | > 10 µM
AMO-1 (haematopoietic neoplasm, suspension) | 0.991 | > 10 µM
ATN-1 (T-cell lymphoblastic leukaemia, suspension) | 0.988 | > 10 µM
BE-13 (lymphoblastic leukaemia, suspension) | 0.987 | > 10 µM
BL-41 (Burkitt lymphoma, suspension) | 0.989 | > 10 µM
BT-474 (breast, adherent) | 0.985 | > 10 µM
Becker (glioma, adherent) | 0.954 | > 10 µM
CAS-1 (glioma, adherent) | 0.955 | > 10 µM
CGTH-W-1 (thyroid, adherent) | 0.903 | > 10 µM
COLO-668 (small cell lung carcinoma, adherent) | 0.904 | > 10 µM
COLO-684 (endometrium, suspension) | 0.974 | > 10 µM
COLO-800 (melanoma, adherent) | 0.96 | > 10 µM
COR-L95 (small cell lung carcinoma, adherent) | 0.946 | > 10 µM
CW-2 (large intestine, adherent) | 0.978 | > 10 µM
D-247MG (glioma, adherent) | 0.979 | > 10 µM

Compound: CNC(=O)c1ccc(Nc2cc(Nc3ccccc3S(=O)(=O)C(C)C)c3cc[nH]c3n2)nc1 [HG-5-113-01]
Assay: as above
Details: top dose 10 µM; top dose inferred
Experimental: as §1

Cell Line | AUC | IC50
8-MG-BA (glioma, adherent) | 0.731 | 2.7 µM
A101D (melanoma, adherent) | 0.808 | 6.67 µM
A253 (head and neck, adherent) | 0.774 | 3.82 µM
A388 (skin, adherent) | 0.699 | 2.48 µM
A498 (kidney, adherent) | 0.693 | 2.89 µM
ALL-PO (lymphoblastic leukaemia, suspension) | 0.557 | 0.903 µM
AMO-1 (haematopoietic neoplasm, suspension) | 0.715 | 2.29 µM
ATN-1 (T-cell lymphoblastic leukaemia, suspension) | 0.666 | 1.75 µM
BE-13 (lymphoblastic leukaemia, suspension) | 0.465 | 0.504 µM
BL-41 (Burkitt lymphoma, suspension) | 0.654 | 1.5 µM
BT-474 (breast, adherent) | 0.897 | > 10 µM
Becker (glioma, adherent) | 0.816 | 6.45 µM
CAS-1 (glioma, adherent) | 0.89 | > 10 µM
CGTH-W-1 (thyroid, adherent) | 0.778 | 4.01 µM
COLO-668 (small cell lung carcinoma, adherent) | 0.875 | 9.87 µM
COLO-684 (endometrium, suspension) | 0.813 | 6.28 µM
COLO-800 (melanoma, adherent) | 0.53 | 0.752 µM
COR-L95 (small cell lung carcinoma, adherent) | 0.917 | > 10 µM
CW-2 (large intestine, adherent) | 0.94 | > 10 µM
D-247MG (glioma, adherent) | 0.767 | 5.09 µM
